US7691374B2, “Method for increasing the efficacy of anti-tumor agents by anti-endoglin antibody” (Health Research, Inc., priority 2002, dated 2010)

Tested on: MCF-7 human breast cancer tumors
Settings: SN6j 100 μg/25 g i.v., DOX 25 μg/25 g i.p.

COc1cccc2c1C(=O)c1c(O)c3c(c(O)c1C2=O)C[C@@](O)(C(=O)CO)C[C@@H]3O[C@H]1C[C@H](N)[C@H](O)[C@H](C)O1 [DOX, Doxorubicin]
Fractional Tumor Volume (FTV) Relative to MOPC + Saline Group (Day 21.0 after tumor cell inoculation): 0.993 | Fractional Tumor Volume (FTV) Relative to MOPC + Saline Group (Day 26.0 after tumor cell inoculation): 0.967 | Fractional Tumor Volume (FTV) Relative to MOPC + Saline Group (Day 29.0 after tumor cell inoculation): 0.980 | Fractional Tumor Volume (FTV) Relative to MOPC + Saline Group (Day 33.0 after tumor cell inoculation): 0.900 | Fractional Tumor Volume (FTV) Relative to MOPC + Saline Group (Day 36.0 after tumor cell inoculation): 0.856

Like-named read-outs stand apart in the source and are kept apart here.
